# Out of some 48,000 compounds screened, about 120 (0.25%) were called active. Roughly 4% stayed inconclusive and do not appear here. The call rests on the fitted dose curve; in most records, active means well fitted activation curve with a large enough effect; inconclusive means small, poorly fitted or top-dose-only effect, or another doubt; inactive means no such curve, though single readings can be large or run the other way. Only a part is listed here, and it is no random draw. Entries without a call were filed so in the source.
# Assay: Primary qHTS for Identification of Small Molecule Activators of Huntingtin-Antisense Promoter Activity; further: nearly all actives have a fitted effect of over 55% in size
# Details: HEK293 HTT-AS promoter firefly luciferase reporter, 24 h; activity change, positive = activation: at 57.5 µM (top of the series), percent change from vehicle, -100% = no light
# Summary of the method: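 Quantitative HTS used concentration series of up to 57.5 uM final on HEK293 luciferase reporter cells, 24 h at 37 degrees C. Readout was Dual-Glo firefly luminescence.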
SMILES,"activity change, positive = activation",Potency
CCOc1cccc(C(=O)Nc2ccc3oc(-c4cccnc4)nc3c2)c1,inactive: -8.42%,–
CCCNC(=O)c1cnc2sc(N3CCCCC3)nn2c1=O,7.55%,–
CCOC(=O)c1ccc(N2CCN(c3cc(Cl)ccc3C)CC2)c(NC(=O)Nc2cccc(OC)c2)c1,-7.34%,–
COc1ccc2c(c1)cc1c(=O)n(CC(=O)NC3CCCCC3)nc(C)n12,-10.2%,–
CCc1ccc(NC(=O)CC2C(=O)N(c3cccc(OC)c3)C(=O)N2Cc2ccco2)cc1 (stereo not drawn),-5.65%,–
COc1cc(C2C(=O)N(C3CCCCC3)CC(=O)N2C2CCCC2)ccc1OC(C)C (stereo not drawn),13.8%,–
COc1ccc(S(=O)(=O)Nc2cccc(-c3ccc(N4CCOCC4)nn3)c2)cc1F,21.9%,–
Cc1nc2scc(C)n2c(=O)c1S(=O)(=O)NCc1ccccc1Cl,4.96%,–
Cc1cccc(NC(=O)c2ccc(C(=O)Nc3cccc(C)c3C)cc2)c1C,7.46%,–
Cc1ccc(-c2cc(C(=O)NC(C)c3ccccc3)c3ccccc3n2)cc1C (stereo not drawn),inactive: 0%,–
O=C(CSc1nnc(COc2ccc(Cl)cc2)o1)Nc1ccccc1,-14.8%,–
CC(C)Oc1cccc(NC(=O)C2CCN(S(=O)(=O)Cc3ccccc3)CC2)c1,-2.87%,–
Cc1cccc(N2C(=O)C(CC(=O)Nc3cccc(F)c3)N(Cc3cccs3)C2=O)c1 (stereo not drawn),-16.4%,–
Cc1nc2cccnc2n1C1CCN(S(=O)(=O)c2ccc(Cl)cc2)CC1,-12.1%,–
CCc1c(O)cc(O)c(C(=O)c2ccc(OCCN3CCOCC3)c(OC)c2)c1CC(=O)N(CCOC)CCOC,inactive: -53.6%,–
CCCc1nn2c(=O)cc(COC(=O)c3cccc(NC(=O)CCc4ccccc4)c3)nc2s1,inactive: 8.5%,–
COc1ccc(CCN2CCN(CCCc3ccccc3)CC2)cc1OC,inactive: -12.1%,–
Cc1cccc(N2CCN(C(=O)c3ccc4c(c3)N(Cc3ccccc3F)C(=O)c3ccccc3S4=O)CC2C)c1 (stereo not drawn),inactive: -32.5%,–
Cc1c(CC(=O)NCc2ccccc2)c(=O)oc2c(C)c(O)ccc12,-11.6%,–
COc1ccc(NC(=O)c2c(NCc3ccc(C)o3)sc3c2CCCCC3)c(OC)c1,inactive: -26.5%,–
CCOc1ccc(C2C(=O)N(C3CCCCCC3)CC(=O)N2Cc2ccc(C)cc2)cc1OC (stereo not drawn),-18.2%,–
Cc1cccc(CSCCNC(=O)C2CCN(S(=O)(=O)Cc3ccccc3)CC2)c1,-1.99%,–
COc1ccc2c(C)c(CCC(=O)NCc3cccc(Cl)c3)c(=O)oc2c1,-1.1%,–
COc1ccc2c(C)c(CCC(=O)NCCc3ccccc3)c(=O)oc2c1,-18.9%,–

SMILES,"activity change, positive = activation",Potency
CC(C)NCC(O)c1ccc(O)c(O)c1 (stereo not drawn),–,inactive
CCOc1cc(Br)cc(C2NC(=O)c3c(sc4c3CCN(C)C4)N2)c1O (stereo not drawn),15.1%,–
Brc1cccc(-c2cnn3c(-c4ccccc4)cc(-c4ccccc4)nc23)c1,-4.86%,–
COc1cccc(C(=O)NCC(c2ccc3c(c2)OCO3)N2CCOCC2)c1 (stereo not drawn),inactive: -14.3%,–
Cc1ccc(-c2nc3ncccc3o2)cc1NC(=O)c1ccc(-c2ccc(Cl)cc2)o1,-6.91%,–
Cc1oc2ccc(O)c(CN3CCOCC3)c2c1C(=O)Nc1ccccc1,0.947%,–
O=S(=O)(Nc1cccc(-c2ccc(N3CCCCC3)nn2)c1)c1cccs1,39.4%,–
CC(C)(C)c1ccc(C2Sc3ccccc3NC3=C2C(=O)c2ccccc23)cc1 (stereo not drawn),-81.3%,–
COc1ccc(Br)cc1CNC(=O)c1cc2ccccn2n1,4.07%,–
CCc1nn(CC(=O)NC(C)CCc2ccccc2)c(=O)c2cc3cc(F)ccc3n12 (stereo not drawn),0.379%,–
CCn1cc(C(=O)NCCCOC(C)C)c(=O)c2cc(S(=O)(=O)N3CCc4ccccc4C3)ccc21,inactive: -20.1%,–
O=C(Nc1ccc(Br)cc1)C1CCCN(S(=O)(=O)c2ccc(Br)s2)C1 (stereo not drawn),inactive: -25.5%,–
Cc1c2cnn(CC(=O)N3CCN(c4ccccc4)CC3)c(=O)c2c(C)n1Cc1ccc(F)cc1,inactive: -16.9%,–
O=C1CC(c2ccccc2)Cc2[nH]c(=O)c(C(=O)Nc3ccc(OC(F)(F)F)cc3)cc21 (stereo not drawn),inactive: -3.42%,–
C=C(C)Cn1c(SCC(=O)c2ccc(OC)cc2)nc2sc3c(c2c1=O)CCCC3,7.84%,–
Cc1cc(C)c(S(=O)(=O)Nc2ccc3oc4c(c3c2)C(=O)CC(C)(C)C4)cc1C,"inactive: 0.0132% [at 11.5 µM, percent change from vehicle, -100% = no light]",–
CCCOc1ccc(C2C(=O)N(C3CCCCCC3)CC(=O)N2CCC2=CCCCC2)cc1OC (stereo not drawn),-9.61%,–
COc1ccc(C2CC(=O)N(CC(=O)Nc3ccc(C)c(Cl)c3)c3ccccc3S2)cc1OC (stereo not drawn),inactive: -20.7%,–
Cc1oc2c(cc(NS(=O)(=O)c3ccc(Cl)cc3)c3ccccc32)c1C(=O)OCc1ccccc1,-5.08%,–
COc1ccc2c(c1)CCc1c(C(=O)Nc3ccc(C#N)cc3)noc1-2,0.4%,–
Cc1ccc(OCCOCCn2c(-c3ccc(Cl)cc3)nc3ccccc3c2=O)cc1,6.35%,–
COc1ccc2c(C)c(CC(=O)NCCc3ccccc3)c(=O)oc2c1OC,-4.36%,–
Cc1cc(S(=O)(=O)Nc2cccc(-c3ccc(N4CCOCC4)nn3)c2)c(C)cc1Cl,-1.49%,–
COc1ccc(OC)c(CCNC(=O)C(C)n2nc(C)c3c(C)n(-c4ccc(C)cc4)nc3c2=O)c1 (stereo not drawn),inactive: -88.4%,–

# Source: PubChem BioAssay AID1508624 (National Center for Advancing Translational Sciences (NCATS), 2021)
